This note sets out measurements from US11866502B2, “Anti-FGFR2 antibodies and methods of use thereof” (Regeneron Pharmaceuticals, Inc., priority 2020, dated 2024).

For orientation: Kd means the concentration at which binding is half-saturated. Low readings indicate higher affinity, high ones lower affinity. As usually defined, the IC50 is the concentration that gives 50% inhibition. A high value points to lower potency.

Assay [1] concerns GA1224 PDX tumors. Put plainly: Gastric cancer patient derived xenograft GA1224 growth (Example 14). The class given is in vivo, BALB/c Nude mice. To be noted: 20 mg/kg once per week for two weeks, intravenous. As for the experimental part: To assess the anti-tumor activity of FGFR2b Camptothecin-LP2 ADCs (Table 13) against patient derived gastric cancer xenografts (GA1224), tumor fragments (2-3 mm in diameter) were implanted subcutaneously into the flank of female BALB/c Nude mice (6-9 weeks old, GemPharmatech Co., Ltd). After tumors reached an average volume of 100-150 mm^3, mice were randomized into groups for treatment (n=6 mice per group).
Tumor volumes were measured twice per week over the course of the experiment. Averages (mean+/−standard deviation) of the tumor growth (change in tumor volume from the start of treatment through the end of the experiment) were calculated for each treatment group. The percent decrease of tumor growth was calculated from comparison to the isotype control antibody group, and the percent regression of tumors at the end of the experiment was calculated from comparison to the tumor volume at the start of treatment.
On the technique in general: In xenograft studies the graft and the host belong to different species.

Assay [2] deals with T1, hFGFR2c.mmh (Homo sapiens, UniProt P21802).
T1 construct: myc-myc-hexahistidine (MMH) (C); made in house
T1 sequence (P21802 with tags, fused parts or gaps): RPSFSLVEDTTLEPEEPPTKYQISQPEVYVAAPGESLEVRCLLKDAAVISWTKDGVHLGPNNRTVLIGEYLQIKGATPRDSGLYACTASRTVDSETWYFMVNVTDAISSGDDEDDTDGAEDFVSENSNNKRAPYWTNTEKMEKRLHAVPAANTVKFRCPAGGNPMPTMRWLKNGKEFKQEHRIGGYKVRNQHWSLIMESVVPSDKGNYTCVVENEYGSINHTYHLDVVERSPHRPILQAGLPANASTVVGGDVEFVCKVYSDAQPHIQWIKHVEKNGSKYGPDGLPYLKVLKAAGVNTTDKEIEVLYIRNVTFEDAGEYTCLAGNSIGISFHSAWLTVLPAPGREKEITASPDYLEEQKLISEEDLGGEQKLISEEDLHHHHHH
In words: Biacore surface plasmon resonance binding kinetics to hFGFR2c.mmh. The note with it: 25° C. The method, then: The equilibrium dissociation constants (KD values) for hFGFR2b.mmh binding to anti-FGFR2 antibodies conjugated with Tubulysin (“tubulysin 1ALP”), Auristatin (“auristatin LP1”), or mc-VC-PAB-NMe-C3-May (“maytansinoid 1ALP”) were determined using a real-time surface plasmon resonance biosensor assay on a Biacore 2000 or a Biacore 4000 instrument. The Biacore sensor surface was derivatized by amine coupling with a monoclonal mouse anti-human Fc antibody (REGN2567 or Jackson Cat. No #109-005-098) to capture anti-FGFR2 ADC and parent unmodified antibodies expressed with human constant regions. Biacore binding studies were performed in HBS-EP running buffer (0.01M HEPES pH 7.4, 0.15M NaCl, 3 mM EDTA, 0.05% v/v Surfactant P20). […] Association of hFGFR2b-MMH or hFGFR2c-MMH to each of the captured ADCs and monoclonal antibodies was monitored for 4 minutes. Subsequently, dissociation was monitored for 10 minutes in HBS-EP running buffer. […] Kinetic association (ka) and dissociation (kd) rate constants were determined by fitting the real-time sensorgrams to a 1:1 binding model using Scrubber 2.0c curve fitting software. […] Binding dissociation equilibrium constants (KD) and dissociative half-lives (t½) were calculated from the kinetic rate constants as: […]
(In general: In SPR one partner is held on a chip, and binding of the other changes the refractive index at the surface.)

Assay [3] concerns NCI-H716 cells. In words: In vitro cytotoxicity assay (CellTiter-Glo 2.0), NCI-H716 cells. The class given is cell-based, human. To be noted: 6 days. As for the experimental part: (§1) To test the ability of anti-FGFR2 antibody drug conjugates (ADCs) disclosed herein to kill human cell lines, an in vitro cytotoxicity assay was performed. In vitro cytotoxicity of the anti-FGFR2 ADCs, isotype control ADCs, and reference free payloads were evaluated using the CellTiter-Glo 2.0 Assay Kit (Promega, Cat #G9243), in which the quantity of ATP present is used to determine the number of viable cells in culture. The payloads Maytansinoid 1A, Maytansinoid 1A* (a cell permeable equivalent of Maytansinoid 1A), and Tubulysin 1A were tested as free payloads, and the unconjugated antibodies, including comparator antibodies, were used as controls.
(§2) Five-fold serial dilutions of anti-FGFR2 ADCs or isotype control ADCs were prepared in dilution media (Optimem+0.1% BSA) and added to cells at final concentrations ranging from 20 nM to 0.051 pM (concentrations were corrected for the DAR and are dosed based on the effective payload concentration). Five-fold serial dilutions of free payloads were prepared in 100% DMSO, transferred to fresh dilution media, and then added to the cells at a final constant DMSO concentration of 0.2% and final payload concentrations ranging from 20 nM to 0.051 pM. The last well in each dilution series served as an untreated control and included media alone or media plus 0.2% DMSO and was plotted as a continuation of the 5-fold serial dilution. Six days later, 100 uL of CellTiter Glo 2.0 was added to each well, plates were mixed for 2 minutes on an orbital shaker, and plates were incubated at room temperature for 10 minutes. Relative light units (RLUs) were measured on an Envision luminometer (Perkin Elmer) and cell viability was expressed as a percentage of the untreated (100% viable) cells. IC50 values were determined using a four-parameter logistic equation over a 10-point dose response curve (GraphPad Prism). The maximum % kill was also determined for each test article as follows: 100−minimum percent viability.
Background: Cellular ATP, detected with luciferase, serves as a proxy for viable cell number.

The subject of assay [4] is human gastric cancer PDX GA0033 tumors. Put plainly: Human gastric cancer PDX GA0033 tumor growth (Example 8). The assay is classed as in vivo, BALB/c nude mice. The note with it: naked antibody 15 mg/kg twice per week. The method, then:
Briefly, HuPrime® primary human gastric cancer PDX GA0033 tumor fragments 2-3 mm in diameter (Crown Bioscience) were implanted subcutaneously into the right flank of female BALB/c nude mice (5-9 weeks old, GemPharmatech). After tumors reached an average volume of 100-200 mm^3, mice were randomized into groups for treatment (n=6 mice per group). […] All ADCs were administered once per week via subcutaneous injection for two treatments, and all naked antibodies were administered twice per week via subcutaneous injection throughout the experiment. Tumor volumes were measured twice per week over the course of the experiment. Averages (mean+/−standard deviation) of the tumor growth (change in tumor volume from the start of treatment through the end of the experiment) were calculated for each treatment group. The percent decrease of tumor growth was calculated from comparison to the corresponding isotype control group, and the percent regression of tumors at the end of the experiment was calculated from comparison to the tumor volume at the start of treatment.

The subject of assay [5] is MFM-223 cells. In words: In vitro cytotoxicity assay (CellTiter-Glo 2.0), MFM-223 cells. The assay is classed as cell-based, human. To be noted: 6 days. As for the experimental part:
as §1
(§3) Five-fold serial dilutions of anti-FGFR2 ADCs or isotype control ADCs were prepared in dilution media (Optimem+0.1% BSA) and added to cells at final concentrations ranging from 20 nM to 0.051 pM (concentrations were corrected for the DAR and are dosed based on the effective payload concentration). […] Relative light units (RLUs) were measured on an Envision luminometer (Perkin Elmer) and cell viability was expressed as a percentage of the untreated (100% viable) cells. IC50 values were determined using a four-parameter logistic equation over a 10-point dose response curve (GraphPad Prism). The maximum % kill was also determined for each test article as follows: 100−minimum percent viability.

Assay [6] deals with SNU-16 cells. In words: In vitro cytotoxicity assay (CellTiter-Glo 2.0), SNU-16 cells. The class given is cell-based, human. To be noted: 6 days. The method, then:
as §1, §3

Assay [7] deals with IM-9 cells. In words: In vitro cytotoxicity assay (CellTiter-Glo 2.0), IM-9 cells. The class given is cell-based, human. The note with it: 6 days. The method, then: as §1, §2
Assay [8] deals with T2, hFGFR2b.mmh (Homo sapiens, UniProt P21802).
T2 construct: myc-myc-hexahistidine (MMH) (C); made in house
T2 sequence (P21802 with tags, fused parts or gaps isoform P21802-3): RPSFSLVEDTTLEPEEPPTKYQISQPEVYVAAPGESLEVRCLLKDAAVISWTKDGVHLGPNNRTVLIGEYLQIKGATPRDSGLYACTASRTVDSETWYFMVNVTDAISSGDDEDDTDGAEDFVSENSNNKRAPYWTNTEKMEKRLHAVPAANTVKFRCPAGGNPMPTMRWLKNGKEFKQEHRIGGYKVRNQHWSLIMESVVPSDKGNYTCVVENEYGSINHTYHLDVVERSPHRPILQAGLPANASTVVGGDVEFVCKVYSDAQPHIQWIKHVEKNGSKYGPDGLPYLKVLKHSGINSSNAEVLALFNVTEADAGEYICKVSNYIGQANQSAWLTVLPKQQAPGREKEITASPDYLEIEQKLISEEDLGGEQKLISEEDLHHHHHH
Put plainly: Biacore surface plasmon resonance binding kinetics to hFGFR2b.mmh. To be noted: 25° C. The method, then:
The Biacore sensor surface was derivatized by amine coupling with a monoclonal mouse anti-human Fc antibody (REGN2567 or Jackson Cat. […] Human FGFR2b and Human FGFR2c were prepared in-house expressing a C-terminal myc-myc-hexahistidine tag ([…] NO: 57; […] NO: 58). […] Association of hFGFR2b-MMH or hFGFR2c-MMH to each of the captured ADCs and monoclonal antibodies was monitored for 4 minutes. Subsequently, dissociation was monitored for 10 minutes in HBS-EP running buffer. Anti-human Fc surface was regenerated by a brief injection of 20 mM H3PO4. All binding kinetic experiments were performed at 25° C. […] All sensorgrams were double referenced by subtracting buffer injection sensorgram signal from the corresponding analyte sensorgram, thereby removing artifacts caused by dissociation of the antibody from the capture surface. […] [formula]

B1: mAb1: anti-FGFR2 antibody; HCVR/LCVR SEQ ID NO: 2/10, HC/LC 18/20; N297Q heavy chain SEQ ID NO: 52 (antibody)
heavy: QVQLVESGGGVVQPGRSLRLSCAASGFTFSSYGMHWVRQAPGKGLEWVAVIWYDGSNKYYADSVKGRFTISRDNSKNTLYLQMNSLRAEDTAVYYCAREESSASGVDYWGQGTLVTVSSASTKGPSVFPLAPCSRSTSESTAALGCLVKDYFPEPVTVSWNSGALTSGVHTFPAVLQSSGLYSLSSVVTVPSSSLGTKTYTCNVDHKPSNTKVDKRV[human IgG4 Fc with S228P (EU numbers) omitted]
light: EIVLTQSPGTLSLSPGERATLSCRASQSVSTRYLAWYQQKRGQAPRLLIYGASSRATGIPDRFSGSGSGTDFTLTISRLEPEDFAVYYCQEYGSSSITFGQGTRLEIKRTVAAPSVFIFPPSDEQLKSGTASVVCLLNNFYPREAKVQWKVDNALQSGNSQESVTEQDSKDSTYSLSSTLTLSKADYEKHKVYACEVTHQGLSSPVTKSFNRGEC
B1: in assay [1], the “Average % Tumor Regression” value is listed as −1300.5%. Besides, the “Tumor growth in mm3 from start of treatment (mean ± SD)” value in assay [1] worked out at 1627.8 ± 551.9 mm3. The “Average % Decrease in Tumor Growth” value in assay [1] (vs isotype control antibody) is −47.5%; in assay [4] (vs corresponding isotype control), 10.9%. The same molecule yielded a Kd in assay [2] of over 30 nM. For the same molecule, the figures for the “Antigen Bound (RU)” value in assay [2] (antibody captured on anti-human Fc surface) and in assay [8] (antibody or ADC captured on anti-human Fc surface) were 1.5 RU and 70.9 RU, respectively. For the same molecule, the IC50 in assay [3] (NCI-H716 (low FGFR2b, high FGFR2c)) was over 20 nM; in assay [5] (MFM-223 (FGFR2b positive)) it was over 20 nM; in assay [6] (SNU-16 (FGFR2b positive)), over 20 nM; in assay [7] (IM-9 (non-FGFR2 expressing)), over 20 nM. The “Max % Kill” value in assay [3] (NCI-H716, up to 20 nM) is 7.8%; in assay [5] (MFM-223, up to 20 nM) it was 4.5%; in assay [6] (SNU-16, up to 20 nM) it was 5.4%; in assay [7] (IM-9, up to 20 nM), 4.4%. The “Tumor growth in mm^3 from start of treatment (mean ± SD)” value in assay [4] (subcutaneous) is on record as 1135.3 ± 391.3 mm^3. The “ka” value in assay [8] worked out at 41700 M⁻¹ s⁻¹. Moreover, the “kd” value in assay [8] was 0.00104 s⁻¹.
